Data as given in PubChem BioAssay AID1508642 (National Center for Advancing Translational Sciences (NCATS), 2021).
Hit rate of the full screen: of about 43,000 compounds, about 200 (0.47%) were called active. The shares of active, inactive and inconclusive entries below differ from those in the screen. Calls come from the whole dose curve; as a rule, active = well fitted cell-killing curve with a large enough effect; inconclusive = small, poorly fitted or top-dose-only effect, or effect the other way; inactive = flat fitted curve, though single readings scatter. Potencies of inconclusive entries are doubtful fits and often do not repeat.

Experiment: Cell viability qHTS assay in S16 Pmp22-F2sN cells; note: nearly all actives have a fitted effect of over 65% in size
Settings: S16 Pmp22-F2sN Schwann cells (luciferase reporters placed in the Pmp22 gene) viability, CellTiter-Glo, 24 h; series mostly up to 57.5 µM
Summary of the method: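 Rat S16 Schwann reporter line, 24 h treatment with library compounds delivered at 23 nL per well. Cell viability by CellTiter-Glo luminescence.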
Potency is the fitted concentration of half-maximal effect; tags give direction and shape of the fitted curve.

Row | Structure (SMILES) | Potency
1 | CC(C)(CC(=O)NCc1ccc(Cl)cc1Cl)CC1=NS(=O)(=O)c2ccccc2N1 | inconclusive: 35.5 µM [cytotoxic, single point]
2 | COc1cc(Cl)c(C)cc1NC(=O)C1CCCN(c2ncnc3onc(-c4ccc(F)cc4)c23)C1 (stereo not drawn) | inconclusive: 39.8 µM [cytotoxic, single point]
3 | COc1ccc(CNC(=O)C2CCN(C(=O)c3cnn(-c4ccccc4)c3-n3cccc3)CC2)cc1 | inconclusive: 31.6 µM [cytotoxic, single point]
4 | CC(C)Oc1ccc(CNC(=O)CN2C(=O)c3cccnc3Oc3ccc(Cl)cc32)cc1 | inconclusive: 35.5 µM [cytotoxic, partial curve, poor fit]
5 | Cc1cc(F)ccc1NC(=O)CCS(=O)(=O)c1cc2c3c(c1)CCN3C(=O)CC2 | inconclusive: 12.6 µM [rising, partial curve, poor fit]
6 | CCS(=O)(=O)N1CC(=O)N(c2cc(C)cc(C)c2)C(C)(C(=O)NC2CCCCC2)C1 (stereo not drawn) | inactive
7 | O=C(CCS(=O)(=O)c1ccccc1)N(Cc1cccnc1)c1nc2c(F)cccc2s1 | inconclusive: 35.5 µM [cytotoxic, single point]
8 | COc1ccc(-c2nc3sc(CCNC(=O)C(C)(C)C)c(C)n3n2)cc1 | inconclusive: 39.8 µM [cytotoxic, partial curve, poor fit]
9 | CCOc1ccc2nc(N3CCCC(C(=O)NCCc4ccc(OC)cc4OC)C3)sc2c1 (stereo not drawn) | inconclusive: 39.8 µM [cytotoxic, single point]
10 | O=C1CC(c2ccccc2)Cc2[nH]c(=O)c(-c3nc(-c4ccc(Cl)c(Cl)c4)cs3)cc21 (stereo not drawn) | inconclusive: 1.58 µM [cytotoxic, partial curve, poor fit]
11 | COC(=O)c1c(-c2ccc(Cl)cc2)noc1N1CCN(c2ccccc2F)CC1 | inactive
12 | COc1cccc(C(=O)Nc2nc(-c3nnn(-c4cc(C)ccc4C)c3C)ns2)c1 | inconclusive: 10 µM [cytotoxic, partial curve, poor fit]
13 | O=C1CN(C(=O)c2cccc(Br)c2)C(c2ccccc2)c2cc(Cl)ccc2N1 (stereo not drawn) | inconclusive: 28.2 µM [cytotoxic, single point]
14 | COc1ccc(-c2cc(C(=O)Oc3ccc(Br)cc3)c3ccccc3n2)cc1 | inactive
15 | Cc1cc(C)c(S(=O)(=O)NCC(c2ccco2)S(=O)(=O)c2ccccc2)c(C)c1 (stereo not drawn) | inactive
16 | Cc1cc(C)c(NC(=O)CCN2CCCCC2)c(C)c1 | inconclusive: 39.8 µM [rising, single point]
17 | O=C(Nc1ccc2c(c1)CCCN2C(=O)c1cccs1)c1ccccc1C(F)(F)F | inconclusive: 17.8 µM [cytotoxic, single point]
18 | CCOC(=O)c1ccc(NC(=O)Nc2cc3c(cc2N2CCCCC2)n(CC)c(=O)n3CC)cc1 | inactive
19 | Cc1nc2cccnc2n1-c1cccc(C(=O)NCc2cccc(Cl)c2)c1 | inconclusive: 39.8 µM [cytotoxic, single point]
20 | COc1cccc(C(=O)NC2=NC(c3ccccc3F)CC(=O)N2)c1 (stereo not drawn) | inactive
21 | CCS(=O)(=O)N1CC(=O)N(c2cc(Cl)ccc2C)C(C)(C(=O)NC2CCCCCC2)C1 (stereo not drawn) | inactive

Row | Structure (SMILES) | Potency
22 | CC(C)c1ccc(NC(=O)CSC2=Nc3ccccc3C3=NC(CCC(=O)NCc4cccs4)C(=O)N23)cc1 (stereo not drawn) | inconclusive: 28.2 µM [cytotoxic, single point]
23 | COc1ccccc1C(=O)OCc1cc(=O)n2c(C)csc2n1 | inconclusive: 0.0891 µM [rising, full curve, poor fit]
24 | Cc1ccc(-n2nc3c(N4CCCC(C(=O)NCc5ccccc5C)C4)nnc(C)c3c2C)cc1 (stereo not drawn) | inconclusive: 39.8 µM [cytotoxic, single point]
25 | CCCn1c(=N)c(C(=O)NC(C)c2ccccc2)cc2c(=O)n3ccccc3nc21 (stereo not drawn) | inactive
26 | COc1cccc(C(=O)NCc2cn3cccc(C)c3n2)c1 | inconclusive: 31.6 µM [rising, partial curve, poor fit]
27 | O=C(NCCCO)C(=O)Nc1c2c(nn1-c1ccc(F)cc1)CSC2 | inactive
28 | COc1ccc(NC(=O)C2=C(C)Nc3nc(SC)nn3C2c2cc(OC)ccc2OC)cc1 (stereo not drawn) | inconclusive: 1.12 µM [rising, full curve, poor fit]
29 | c1ccc(N2CCN(c3ncnc4c3nc3n4CCCC3)CC2)cc1 | inconclusive: 1.58 µM [cytotoxic, full curve, poor fit]
30 | CCCCNC(=O)CSc1c2c(nc3ccc(Cl)cc13)CCCC2 | active: 39.8 µM
31 | Cc1c(C(=O)Nc2ccc(F)cc2F)nnn1-c1ccccc1Br | inconclusive: 39.8 µM [cytotoxic, single point]
32 | CC(C)c1ccc(NC(=O)CCS(=O)(=O)c2ccc(Br)s2)cc1 | inconclusive: 35.5 µM [cytotoxic, single point]
33 | COCCCNC(=O)c1c(C)nn(-c2ccc(F)cc2)c1-n1cccc1 | inactive
34 | COc1cccc(-c2nc(S(=O)(=O)c3ccccc3)c(NCc3ccccc3)o2)c1 | inconclusive: 7.08 µM [cytotoxic, single point]
35 | CC1=C(C(=O)Nc2ccc(C)cc2C)C(c2ccc(C(C)C)cc2)n2nc(C(F)(F)F)nc2N1 (stereo not drawn) | inconclusive: 39.8 µM [cytotoxic, single point]
36 | O=C1C2=C(Nc3ccccc3SC2c2c(F)cccc2Cl)c2ccccc21 (stereo not drawn) | inconclusive: 35.5 µM [cytotoxic, single point]
37 | Cc1oc2ncn(C)c(=O)c2c1C(=O)N(C)c1ccccc1F | inconclusive: 31.6 µM [cytotoxic, single point]
38 | COc1ccc(CCNc2nc3c(c(=O)n(C)c(=O)n3C)n2Cc2ccc(F)cc2)cc1OC | inconclusive: 28.2 µM [cytotoxic, single point]
39 | CCOC(=O)c1cc2c(=O)n3ccccc3nc2n(Cc2ccco2)c1=NC(=O)c1cc(C)cc(C)c1 | inconclusive: 39.8 µM [cytotoxic, single point]
40 | CCOC(=O)c1cnc2ccc(OC)cc2c1Nc1cccc(C(C)=O)c1 | inconclusive: 14.1 µM [cytotoxic, partial curve, poor fit]
41 | COc1c(C)cc(NS(=O)(=O)c2ccc3c(c2)OCCO3)cc1C | inactive
42 | Cc1ccccc1OCC(=O)Nc1ccc2nc(SCC(=O)N3CCOCC3)sc2c1 | inactive

Row | Structure (SMILES) | Potency
43 | O=C(CN1C(=O)C2(SCC(=O)N2c2ccc(F)c(F)c2)c2ccccc21)Nc1cccc(Cl)c1 (stereo not drawn) | inconclusive: 39.8 µM [cytotoxic, single point]
44 | COc1ccc(Cl)cc1C(=O)NCCS(=O)(=O)N1CCN(c2ccccc2OC)CC1 | inconclusive: 39.8 µM [cytotoxic, single point]
45 | CCCCNC(=O)C1CCC(Cn2c(=O)c3sccc3n(CC(=O)Nc3ccccc3)c2=O)CC1 (stereo not drawn) | inactive
46 | COc1ccc(Oc2nc3c(c(=O)n(C)c(=O)n3C)n2Cc2ccc(Cl)cc2Cl)cc1 | inconclusive: 5.62 µM [cytotoxic, full curve, poor fit]
47 | O=C(Nc1nc2c(F)cccc2s1)c1ccc2c(c1)OCCO2 | inactive
48 | CCc1ccccc1NC(=O)c1ccc(F)c(S(=O)(=O)N2CCN(c3ccccc3OC)CC2)c1 | inconclusive: 28.2 µM [cytotoxic, single point]
49 | Cn1cccc1-c1cc2n(n1)CCC(=O)N2CC(=O)Nc1ccc(F)cc1Cl | inconclusive: 28.2 µM [cytotoxic, single point]
50 | CCOc1cc(CNc2ccc(O)cc2)cc(Cl)c1OCc1ccccc1 | active: 8.91 µM
51 | Fc1ccc(-n2ncc3c(NC4CCCCCC4)ncnc32)cc1 | inconclusive: 39.8 µM [cytotoxic, single point]
52 | CCOC(=O)N1CCc2c(sc3c2c(=O)n(-c2ccccc2)c(=O)n3CC(=O)Nc2ccc(OC)cc2OC)C1 | inconclusive: 28.2 µM [cytotoxic, single point]
53 | CCc1ccccc1N1CC(c2nc3ccccc3n2CCCOc2ccc(Cl)cc2)CC1=O (stereo not drawn) | inconclusive: 39.8 µM [rising, partial curve, poor fit]
54 | COc1cc(OC)c(NC(=O)N2CCSc3ccccc32)cc1Cl | inconclusive: 39.8 µM [cytotoxic, partial curve, poor fit]
55 | COc1ccc(C(=O)Nc2cc3c(cc2C(=O)c2ccccc2Cl)OCCO3)cc1 | inactive
56 | Cc1cc(Cl)ccc1NC(=O)c1cccc(NC(=O)N2CCSc3ncccc32)c1 | inactive
57 | O=C(CCOc1ccccc1)N(Cc1cccnc1)c1nc2c(F)cc(F)cc2s1 | inconclusive: 39.8 µM [cytotoxic, single point]
58 | O=C(Nc1ccc2oc(-c3cc(Br)ccc3Cl)nc2c1)c1cc2ccccc2o1 | inconclusive: 25.1 µM [cytotoxic, single point]
59 | Cc1ccccc1OCCn1c(=N)n(C(C)C)c2ccccc21 | inconclusive: 39.8 µM [cytotoxic, single point]
60 | Cc1ccc(N2CCN(C(=O)C3CCN(S(=O)(=O)c4ccc5c(c4)oc(=O)n5C)CC3)CC2C)cc1 (stereo not drawn) | inconclusive: 39.8 µM [cytotoxic, single point]
61 | CC(=O)c1ccc(NC(=O)CCc2c(C)nn(-c3ccc(N4CCOCC4)nn3)c2C)cc1 | inconclusive: 0.224 µM [cytotoxic, full curve, poor fit]
62 | Cc1ccccc1OCC(=O)N1CCC(c2nc3ccccc3s2)CC1 | inconclusive: 28.2 µM [cytotoxic, single point]
63 | COc1ccc(N(C(=O)c2ccc(C(C)(C)C)cc2)S(=O)(=O)c2ccc(Cl)cc2)cc1 | inconclusive: 35.5 µM [cytotoxic, single point]
